# Results reported in article PMC4336329 (PLoS ONE, 2015).
# In all, about 310,000 compounds went through this assay and about 2,200 (0.71%) showed an effect of 50% or more. The effect is printed as a negative number. This is one part of the list. Where a SMILES comes first, the peptide text is derived from it. The star is where a group is joined. Cbz = O=C(OCc1ccccc1)*
# Target: human ether-à-go-go-related gene (hERG) potassium channel (human, UniProt Q12809)
# Experiment: primary screen, population patch clamp on CHO cells stably expressing hERG
# Sequence of human ether-à-go-go-related gene (hERG) potassium channel (Q12809 whole entry, looked up): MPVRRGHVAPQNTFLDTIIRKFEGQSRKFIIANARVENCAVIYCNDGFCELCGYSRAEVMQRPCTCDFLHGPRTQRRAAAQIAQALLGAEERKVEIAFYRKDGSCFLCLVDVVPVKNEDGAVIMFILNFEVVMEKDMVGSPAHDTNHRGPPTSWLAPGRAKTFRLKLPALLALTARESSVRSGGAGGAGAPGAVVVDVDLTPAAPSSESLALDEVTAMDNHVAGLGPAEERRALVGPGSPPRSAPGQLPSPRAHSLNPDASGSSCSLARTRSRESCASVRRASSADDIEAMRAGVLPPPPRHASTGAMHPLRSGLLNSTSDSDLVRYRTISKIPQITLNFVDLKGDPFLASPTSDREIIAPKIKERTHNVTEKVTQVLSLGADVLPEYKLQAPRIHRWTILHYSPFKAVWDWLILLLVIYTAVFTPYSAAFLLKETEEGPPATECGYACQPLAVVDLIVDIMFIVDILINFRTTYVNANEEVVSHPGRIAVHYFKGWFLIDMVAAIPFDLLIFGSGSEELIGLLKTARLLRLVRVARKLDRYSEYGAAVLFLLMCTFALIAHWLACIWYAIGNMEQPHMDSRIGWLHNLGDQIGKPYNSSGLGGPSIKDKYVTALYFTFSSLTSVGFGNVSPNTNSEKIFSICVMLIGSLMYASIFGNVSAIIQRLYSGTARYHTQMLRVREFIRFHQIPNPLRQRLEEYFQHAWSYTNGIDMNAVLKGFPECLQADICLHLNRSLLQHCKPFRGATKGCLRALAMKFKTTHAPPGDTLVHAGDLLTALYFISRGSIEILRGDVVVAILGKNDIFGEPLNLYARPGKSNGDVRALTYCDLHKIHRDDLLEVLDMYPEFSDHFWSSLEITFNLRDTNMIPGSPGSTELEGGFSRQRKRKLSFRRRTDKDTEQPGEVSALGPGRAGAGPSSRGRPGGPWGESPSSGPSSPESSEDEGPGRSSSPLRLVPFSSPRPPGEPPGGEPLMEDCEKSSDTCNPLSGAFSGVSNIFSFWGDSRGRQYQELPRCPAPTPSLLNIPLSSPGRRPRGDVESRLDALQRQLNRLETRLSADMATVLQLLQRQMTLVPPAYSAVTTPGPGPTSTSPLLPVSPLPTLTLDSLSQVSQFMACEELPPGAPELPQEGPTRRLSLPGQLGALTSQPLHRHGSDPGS
row,SMILES,"hERG current change (%, negative = inhibition) at 1uM"
1,Cn1cccc1/C=N/NC(=O)c1cc(-c2cccs2)nc2ccccc12,-3.14%
2,CCOc1ccc2nc(SC3CC(=O)N(c4ccccc4)C3=O)sc2c1 (centres unmarked),10.6%
3,O=C(O)c1ccn[nH]1,2.4%
4,CCCN1CCN(C(=O)CCS(=O)(=O)c2cc3c(cc2Cl)NC(=O)CO3)CC1,-19.2%
5,Cc1ccsc1C(=O)N(C)CC(=O)N(CC(C)C)c1c(N)n(CC(C)C)c(=O)[nH]c1=O,5.73%
6,O=S(=O)(/N=C(/Nc1cc(N2CCOCC2)ncn1)c1ccc(F)cc1)c1ccccc1,-1.47%
7,c1ccc(-n2ncc3c2ncn2nc(-c4ccco4)nc32)cc1,17.4%
8,O=C(COc1ccccc1)N(Cc1cccs1)C1CCS(=O)(=O)C1 (centres unmarked),2.24%
9,O=C(COc1coc(CN2CCc3ccccc3C2)cc1=O)Nc1ccc([N+](=O)[O-])cc1,5.94%
10,COc1ccc(-n2c3c(cc(C(=O)N4CCCCC4)c2=O)C(=O)CC(C)(C)C3)cc1,14.4%
11,O=C(N/C(=C\c1ccc([N+](=O)[O-])cc1)C(=O)N1CCCCC1)c1ccco1,-41.5%
12,CC(=O)n1cc(Nc2ccc([N+](=O)[O-])cc2)c2ccccc21,4.63%
13,CCCN(CCC)C1=CC(=[N+]2CCCC2)CC(C)(C)C1.[I-],-42.7%
14,FC(F)Oc1ccc(NC(=S)NCC2COc3ccccc3O2)cc1 (centres unmarked),7.83%
15,O=C(NC1=NCCS1)c1cccc(S(=O)(=O)N2CCc3ccccc32)c1,12.3%
16,CCCCCCN1CC(=O)N2Cc3[nH]c4ccccc4c3C[C@H]2C1=O,7.98%
17,CCCN1CNC(=S)N(c2ccc(C(=O)OCC)cc2)C1,10.9%
18,O=C1OC(N2C(=O)CC[C@H]2C(=O)NCC2CCCO2)c2ccccc21 (some centres unmarked),13.9%
19,CCc1cc(CNC(=O)C2CCC(=O)N(Cc3ccc(Cl)cc3)C2)on1 (centres unmarked),-12.8%
20,Cc1cc(NS(=O)(=O)Cc2ccccc2)no1,-0.205%
21,CCCCN(CCCC)CC(O)COc1ccc(Br)cc1 (centres unmarked),-43.6%
22,c1ccc2oc(-c3csc(NCC4CCCO4)n3)cc2c1 (centres unmarked),1.08%

row,SMILES,"hERG current change (%, negative = inhibition) at 1uM"
1,Cc1cc(C)c2nc(NC(=O)c3ccc(OCC4CCCO4)cc3)sc2c1 (centres unmarked),13.2%
2,CCC(C)N(C(=O)CSc1nnnn1-c1ccccc1OC)C1CCS(=O)(=O)C1 (centres unmarked),-11%
3,CC1(c2ccc(C#N)cc2)NC(=O)N(CC(=O)Nc2cc(S(=O)(=O)N3CCOCC3)ccc2Cl)C1=O (centres unmarked),11.5%
4,CCCCOc1ccc(C2C(C(=O)c3ccc(C)o3)=C(O)C(=O)N2Cc2ccco2)cc1 (centres unmarked),10.5%
5,CN(C)C(=O)CCN1CCOCC1,11.1%
6,CCS(=O)(=O)c1ccc2oc(SCC(=O)N3c4ccccc4CC3C)nc2c1 (centres unmarked),-11.1%
7,COc1ccc(C(=O)N2CCCc3ccccc32)cc1,5.2%
8,CCOc1ccccc1NC(=O)c1cccc(N2C(=O)CCC2=O)c1,12.3%
9,COc1ccc(OC)c(Nc2nc(N)nc(CSc3nnc(-c4ccncc4)o3)n2)c1,13.1%
10,CC(C)(C)C(=O)OCc1nc(-c2ccc(F)cc2)cs1,12.7%
11,COCCNC(=S)N/N=C(\C)c1cc2ccccc2o1,-0.647%
12,COc1ccc2oc(=O)c(-c3cn4ccc(C)cc4n3)cc2c1,10.1%
13,CCCc1cc(=O)[nH]c(SCC(=O)N2CCN(S(=O)(=O)c3ccc(C)cc3C)CC2)n1,17.5%
14,O=C1C(=O)N(CCCn2ccnc2)C(c2cccnc2)/C1=C(/O)c1ccc(F)cc1 (centres unmarked),10.1%
15,Cc1ccc(-c2nnc(COC(=O)c3cc(=O)[nH]c4ccccc34)o2)cc1,8.42%
16,O=C(CSc1nc2ccccc2o1)Nc1nc2ccccc2s1,9.85%
17,CCOc1ccc(-n2c(SCC(=O)NC3CCS(=O)(=O)C3)nnc2-c2cccnc2)cc1 (centres unmarked),23.3%
18,CCOc1ccc(C)cc1S(=O)(=O)NC1CCCCC1,-8.33%
19,O=[N+]([O-])c1cc2c(cc1/C=N/n1cnnc1)OCO2,9.68%
20,CCc1ccccc1N(CC(=O)NCCc1ccccc1)C(=O)CCC(=O)Nc1ccccn1,-0.84%
21,CCCc1cc(C(=O)N2CCC(N3CCC(C(=O)NC(C)C)CC3)CC2)n(C)n1,8.76%
22,COC(=O)C(CO)NC(=O)C(C)NC(=O)CNC(=O)OCc1ccccc1 (stereo not drawn) (Cbz-Gly-Ala-Ser-OMe; configuration not given here),13.4%
